# In the supplement of paper PMC8728848:
# The other results are listed elsewhere or left out.
# B1: Gal 4 (Canis lupus) (protein)
# chain: MAYVPAPGYQPTYNPTLPYNKPIPGGLSVGMSVYIQGITSEHMRRFCVNFVAGAHPGSDIAFHFNPRFDGWDKVVFNSHLGGKWGSEEKKRSMPFRKGTHFELVFMVLAEHYKVVVNGNPFYEFGHRLPLQLVTHLQVEGDVELQSINFIGGTQPLGQGPGHTQQQPSSLPTMEGPPVFNPPVPFRKRLQGGLTVRRTVIIKGFVPFTSKSFVINFMVESSGDLALHINPRLTEGLVVRNSCLNGSWGSEDRKLSYNPFIPGQFFDLSIRCGMDRFKVYANGQHLFDFSHRLLALQNVDMLEINGDVTLSYIQV
# Legend:
# Test in all cases: glycan array binding signal (z-score within array); higher = stronger binding
# Conditions in all cases: glycan notation: IUPAC condensed, linker removed
# [1] = target: Gal(a1-3)Gal(b1-4)[Fuc(a1-3)]GlcNAc
# Procedure, shortened: (§1)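 Glycan array binding is given as a within-array Z-score, which can be read as non-binding when negative. The arrays, 3228 of them, came from the Consortium for Functional Glycomics database and were retained only where the protein sequence was available. Z-scores were averaged across arrays of the same protein sequence at different concentrations or buffers and across linkers.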
# [2] = target: Gal(a1-3)Gal(b1-4)[Fuc(a1-3)]GlcNAc(b1-2)Man(a1-3)[Gal(a1-3)Gal(b1-4)[Fuc(a1-3)]GlcNAc(b1-2)Man(a1-6)]Man(b1-4)GlcNAc(b1-4)GlcNAc
# Procedure, shortened: as §1
# [3] = target: Gal(a1-3)GalNAc
# Procedure, shortened: as §1
# [4] = target: Gal(a1-3)[Gal(a1-4)]Gal(b1-4)GlcNAc
# Procedure, shortened: as §1
# [5] = target: Gal(a1-4)Gal(b1-3)GlcNAc(b1-2)Man(a1-3)[Gal(a1-4)Gal(b1-3)GlcNAc(b1-2)Man(a1-6)]Man(b1-4)GlcNAc(b1-4)GlcNAc
# Procedure, shortened: as §1
# [6] = target: Gal(a1-4)Gal(b1-4)Glc
# Procedure, shortened: as §1
# [7] = target: Gal(a1-4)Gal(b1-4)GlcNAc
# Procedure, shortened: as §1
# [8] = target: Gal(a1-4)Gal(b1-4)GlcNAc(b1-2)Man(a1-3)[Gal(a1-4)Gal(b1-4)GlcNAc(b1-2)Man(a1-6)]Man(b1-4)GlcNAc(b1-4)GlcNAc
# Procedure, shortened: as §1
# [9] = target: Gal(a1-4)Gal(b1-4)GlcNAc(b1-3)Gal(b1-4)Glc
# Procedure, shortened: as §1
# [10] = target: Gal(a1-4)GlcNAc
# Procedure, shortened: as §1
# [11] = target: Gal(a1-6)Glc
# Procedure, shortened: as §1
# [12] = target: Gal(b1-2)Gal
# Procedure, shortened: as §1
# [13] = target: Gal(b1-3)Gal
# Procedure, shortened: as §1
# [14] = target: Gal(b1-3)Gal(b1-4)GlcNAc
# Procedure, shortened: as §1
# [15] = target: Gal(b1-3)Gal(b1-4)GlcNAc(b1-2)Man(a1-3)[Gal(b1-3)Gal(b1-4)GlcNAc(b1-2)Man(a1-6)]Man(b1-4)GlcNAc(b1-4)GlcNAc
# Procedure, shortened: as §1
# [16] = target: Gal(b1-3)GalNAc
# Procedure, shortened: as §1
# [17] = target: Gal(b1-3)GalNAc(a1-3)[Fuc(a1-2)]Gal(b1-4)Glc
# Procedure, shortened: as §1
# [18] = target: Gal(b1-3)GalNAc(a1-3)[Fuc(a1-2)]Gal(b1-4)GlcNAc
# Procedure, shortened: as §1
# [19] = target: Gal(b1-3)GalNAc(b1-3)Gal(a1-4)Gal(b1-4)Glc
# Procedure, shortened: as §1
# [20] = target: Gal(b1-3)GalNAc(b1-4)Gal(b1-4)Glc
# Procedure, shortened: as §1
# [21] = target: Gal(b1-3)GalNAc(b1-4)[Neu5Ac(a2-3)]Gal(b1-4)Glc
# Procedure, shortened: as §1
# [22] = target: Gal(b1-3)GlcNAc
# Procedure, shortened: as §1
# [23] = target: Gal(b1-3)GlcNAc(a1-6)Gal(b1-4)GlcNAc
# Procedure, shortened: as §1
# [24] = target: Gal(b1-3)GlcNAc(b1-2)Man(a1-3)[Gal(b1-3)GlcNAc(b1-2)Man(a1-6)]Man(b1-4)GlcNAc(b1-4)GlcNAc
# Procedure, shortened: as §1
# [25] = target: Gal(b1-3)GlcNAc(b1-2)Man(a1-3)[Gal(b1-3)GlcNAc(b1-2)Man(a1-6)]Man(b1-4)GlcNAc(b1-4)[Fuc(a1-6)]GlcNAc
# Procedure, shortened: as §1
# [26] = target: Gal(b1-3)GlcNAc(b1-2)[Gal(b1-3)GlcNAc(b1-6)]Man(a1-6)[Gal(b1-3)GlcNAc(b1-2)Man(a1-3)]Man(b1-4)GlcNAc(b1-4)GlcNAc
# Procedure, shortened: as §1
# [27] = target: Gal(b1-3)GlcNAc(b1-3)Gal(b1-3)GlcNAc
# Procedure, shortened: as §1
# [28] = target: Gal(b1-3)GlcNAc(b1-3)Gal(b1-4)Glc
# Procedure, shortened: as §1
# [29] = target: Gal(b1-3)GlcNAc(b1-3)Gal(b1-4)GlcNAc
# Procedure, shortened: as §1
# [30] = target: Gal(b1-3)GlcNAc(b1-3)Gal(b1-4)GlcNAc(b1-6)[Gal(b1-3)GlcNAc(b1-3)]Gal(b1-4)Glc
# Procedure, shortened: as §1
# [31] = target: Gal(b1-3)GlcNAc(b1-3)Gal(b1-4)[Fuc(a1-3)]GlcNAc(b1-6)[Gal(b1-3)GlcNAc(b1-3)]Gal(b1-4)Glc
# Procedure, shortened: as §1
# [32] = target: Gal(b1-3)GlcNAc(b1-3)GalNAc
# Procedure, shortened: as §1
# [33] = target: Gal(b1-3)GlcNAc(b1-6)Gal(b1-4)GlcNAc
# Procedure, shortened: as §1
# [34] = target: Gal(b1-3)[Fuc(a1-4)]GlcNAc
# Procedure, shortened: as §1
# [35] = target: Gal(b1-3)[Fuc(a1-4)]GlcNAc(b1-2)Man(a1-3)[Gal(b1-3)[Fuc(a1-4)]GlcNAc(b1-2)Man(a1-6)]Man(b1-4)GlcNAc(b1-4)GlcNAc
# Procedure, shortened: as §1
# [36] = target: Gal(b1-3)[Fuc(a1-4)]GlcNAc(b1-2)Man(a1-3)[Gal(b1-3)[Fuc(a1-4)]GlcNAc(b1-2)Man(a1-6)]Man(b1-4)GlcNAc(b1-4)[Fuc(a1-6)]GlcNAc
# Procedure, shortened: as §1
# [37] = target: Gal(b1-3)[Fuc(a1-4)]GlcNAc(b1-3)Gal(b1-3)[Fuc(a1-4)]GlcNAc
# Procedure, shortened: as §1
binder,measurement,setting,value
B1,glycan array binding signal (z-score),[1],-0.153
same,glycan array binding signal (z-score),[2],-0.134
same,glycan array binding signal (z-score),[3],-0.152
same,glycan array binding signal (z-score),[4],-0.135
same,glycan array binding signal (z-score),[5],-0.114
same,glycan array binding signal (z-score),[6],-0.149
same,glycan array binding signal (z-score),[7],-0.147
same,glycan array binding signal (z-score),[8],-0.064
same,glycan array binding signal (z-score),[9],-0.143
same,glycan array binding signal (z-score),[10],-0.136
same,glycan array binding signal (z-score),[11],-0.154
same,glycan array binding signal (z-score),[12],-0.149
same,glycan array binding signal (z-score),[13],-0.143
same,glycan array binding signal (z-score),[14],-0.154
same,glycan array binding signal (z-score),[15],-0.123
same,glycan array binding signal (z-score),[16],-0.15
same,glycan array binding signal (z-score),[17],11.1
same,glycan array binding signal (z-score),[18],2.63
same,glycan array binding signal (z-score),[19],-0.148
same,glycan array binding signal (z-score),[20],-0.134
same,glycan array binding signal (z-score),[21],-0.139
same,glycan array binding signal (z-score),[22],-0.138
same,glycan array binding signal (z-score),[23],-0.137
same,glycan array binding signal (z-score),[24],-0.112
same,glycan array binding signal (z-score),[25],-0.104
same,glycan array binding signal (z-score),[26],-0.106
same,glycan array binding signal (z-score),[27],-0.143
same,glycan array binding signal (z-score),[28],-0.127
same,glycan array binding signal (z-score),[29],-0.154
same,glycan array binding signal (z-score),[30],-0.146
same,glycan array binding signal (z-score),[31],-0.122
same,glycan array binding signal (z-score),[32],-0.146
same,glycan array binding signal (z-score),[33],-0.141
same,glycan array binding signal (z-score),[34],-0.152
same,glycan array binding signal (z-score),[35],-0.075
same,glycan array binding signal (z-score),[36],-0.122
same,glycan array binding signal (z-score),[37],-0.132
